Data on 1 protein can be found in publication PMC5076566 (Cell, 2016).

The series deals with the molecule itself. In words: filament assembly seen by transmission electron microscopy.

B1: Recombinant human vimentin Δtail ([…] AA) (domain or fragment)
chain: not shown
For the protein B1, the binding result is “binds”.
